Data: publication PMC4336329 (PLoS ONE, 2015)
Screen size: about 310,000 compounds; about 14,000 (4.5%) showed an effect of 50% or more. The effect is printed as a negative number. The list shows a part of the results.

target: human ether-à-go-go-related gene (hERG) potassium channel (human, UniProt Q12809); assay: primary screen, population patch clamp on CHO cells stably expressing hERG
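Note: peak tail current of the secondary pulse compared with the same well before compound.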

human ether-à-go-go-related gene (hERG) potassium channel, sequence (Q12809 whole entry, looked up): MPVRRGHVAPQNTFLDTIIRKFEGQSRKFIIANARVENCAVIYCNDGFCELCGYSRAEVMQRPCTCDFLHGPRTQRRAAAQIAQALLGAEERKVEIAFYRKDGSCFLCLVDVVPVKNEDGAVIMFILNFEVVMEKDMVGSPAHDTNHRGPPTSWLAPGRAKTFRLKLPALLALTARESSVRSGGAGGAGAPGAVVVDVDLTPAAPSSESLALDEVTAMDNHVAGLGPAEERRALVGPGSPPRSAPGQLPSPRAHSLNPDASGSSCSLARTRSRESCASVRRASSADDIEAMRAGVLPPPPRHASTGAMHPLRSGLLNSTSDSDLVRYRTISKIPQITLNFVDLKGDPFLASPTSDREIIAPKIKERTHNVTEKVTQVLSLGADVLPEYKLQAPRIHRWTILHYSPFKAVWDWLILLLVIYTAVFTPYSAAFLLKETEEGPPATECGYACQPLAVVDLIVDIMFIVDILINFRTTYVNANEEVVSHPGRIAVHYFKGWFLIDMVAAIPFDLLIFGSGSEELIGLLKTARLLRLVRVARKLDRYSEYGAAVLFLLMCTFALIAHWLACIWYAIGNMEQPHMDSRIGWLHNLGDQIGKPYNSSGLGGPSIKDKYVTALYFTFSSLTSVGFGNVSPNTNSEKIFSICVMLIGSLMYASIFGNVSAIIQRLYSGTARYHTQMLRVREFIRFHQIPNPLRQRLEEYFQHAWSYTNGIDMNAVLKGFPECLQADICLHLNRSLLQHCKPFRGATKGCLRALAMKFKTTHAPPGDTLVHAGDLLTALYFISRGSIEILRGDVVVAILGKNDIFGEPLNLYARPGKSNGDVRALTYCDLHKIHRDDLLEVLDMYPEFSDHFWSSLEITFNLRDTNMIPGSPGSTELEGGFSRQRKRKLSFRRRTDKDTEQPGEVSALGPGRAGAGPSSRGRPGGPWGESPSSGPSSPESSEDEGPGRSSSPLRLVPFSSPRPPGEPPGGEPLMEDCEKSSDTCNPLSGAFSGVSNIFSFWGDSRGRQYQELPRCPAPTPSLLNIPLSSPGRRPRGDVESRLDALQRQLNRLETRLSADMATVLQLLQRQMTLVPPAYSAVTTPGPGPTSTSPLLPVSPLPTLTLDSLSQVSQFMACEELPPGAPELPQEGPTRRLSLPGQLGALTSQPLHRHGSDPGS

Compound | hERG current change (%, negative = inhibition) at 10uM [%]
Cc1ccccc1C(=O)c1cccn1CC(=O)NCc1ccco1 | -0.496
Cn1cc(-c2nnnn2-c2cccc(C(F)(F)F)c2)c(C(F)(F)F)n1 | -8
Cc1cnc(NC(=O)COc2ccc3c(c2)CCC3)s1 | 17.3
NC(=O)CC(NC(=O)c1ccc(Br)cc1)c1ccc(N2CCC(Br)CC2)c([N+](=O)[O-])c1 (centres unmarked) | 1.28
O=C1NC(Cc2ccccc2)c2nc3cc(F)ccc3c(=O)n2-c2ccc(Cl)cc21 (centres unmarked) | 5.57
COc1cc(NC(=O)C(c2ccccc2)c2ccccc2)c(C(=O)O)cc1OC | 16.7
CCn1c(C)[n+](CCCS(=O)(=O)[O-])c2cc(Cl)c(Cl)cc21 | 23.3
Cc1ccc(CSCC(=O)Nc2ccc(N3CCOCC3)cc2N2CCOCC2)cc1 | -4.65
O=C(COc1ccc(S(=O)(=O)NC2CCCCC2)cc1Cl)NCc1ccc2c(c1)OCO2 | 7.69
O=C(CSc1ncnc2c1oc1ccccc12)N1CCN(c2ccccc2)CC1 | -4.27
CN(C)c1ccc(/C=C2\NC(=S)N(Cc3ccccc3)C2=O)cc1 | -0.668
COc1cccc(NC(=O)C2CCCN2S(=O)(=O)c2ccc3c(c2)n(C)c(=O)c(=O)n3C)c1 (centres unmarked) | 5.57
CC/C(=N\NC(=O)c1ccc2c(c1)OCO2)c1ccccc1 | 14.8
COc1ccc(NC(=O)CSCc2cc(=O)n3nc(C4CC4)sc3n2)cc1 | 7.96
COc1cc(OC)cc(C(=O)N2CCN(Cc3ccccc3[N+](=O)[O-])CC2)c1.O=C(O)C(=O)O | -46.5
CN(Cc1ccc(Cl)cc1Cl)C(=O)CNC(=O)c1ccc2c(c1)OCO2 | -26.3
O=C1CNC(=O)/C1=C/c1ccc(O)cc1 | 18.6
CCn1c(=O)c2cc(C(=O)Nc3ccccc3OC)sc2c2ccccc21 | 7.74
CC(C)COC(=O)c1ccc(NC(=O)C2C3CCC(C3)C2C(=O)O)cc1 (centres unmarked) | 7.41
COc1ccc(C(=O)N2CCN(C(=O)C3COc4ccccc4O3)CC2)cc1 (centres unmarked) | -26.7
O=C(O)COc1ccc(NC(=O)c2ccco2)cc1 | -4.51
CSCCC(NC(=O)c1ccco1)C(=O)N1CCCC(C(F)(F)F)C1 (centres unmarked) | -14.9

Compound | hERG current change (%, negative = inhibition) at 10uM [%]
COc1ccc(CCC(=O)OC(C)C(=O)c2ccc(C)cc2)cc1 (centres unmarked) | 0.769
CCOC(=O)Cc1ccc(NCc2ccc(Cl)cc2)cc1.Cl | 12.7
COc1ccc(N(CC(=O)Nc2cccc(C(=O)O)c2)S(=O)(=O)c2c(C)noc2C)cc1 | -0.655
COc1cc(NC(=O)COC(=O)/C=C/c2c(C)nn(-c3ccc(F)cc3)c2Cl)cc(OC)c1 | 8.33
CCOC(=O)CN1NC2(CCCC(C)C2)NC1=S (centres unmarked) | 16.8
Cc1ccc(NC(=S)NCCN(C2CCCCC2)C2CCCC2)cc1 | -72
C=CCSc1ncccc1C(=O)NCCc1ccccc1 | 5.37
COc1ccc(O)c(CN2CCCC(C(=O)c3sccc3C)C2)c1 (centres unmarked) | 9.89
O=C1CN=C(c2ccc(Br)cc2)c2oc3ccccc3c2N1 | 6.88
CCOC(=O)c1cnc2ccc(OCC)cc2c1N(C)Cc1ccccc1 | -11.9
Cl.O=C(CCCN1CCC(O)(c2cccc(C(F)(F)F)c2)CC1)c1ccc(F)cc1 | -75.6
CCN1CCN(CCCNC(=O)Cn2cc3c(n2)CCCC3)CC1 | 16.4
COc1ccc2nc(Nc3nc(C)c(C(C)=O)s3)sc2c1 | 7.16
CCOC(=O)CSc1cc(CS(=O)c2ccc(Cl)cc2)nc(-c2ccccc2)n1 (centres unmarked) | -49.3
COc1ccccc1NC(=S)N(Cc1ccc(C(=O)O)cc1)Cc1ccc(OC)c(OC)c1 | 6.54
O=C(CN1C(=O)COc2ccccc21)N1CCCc2ccccc21 | -7.54
CCCCCCC(CC(=O)NCc1cccnc1)CC(=O)NCc1cccnc1 | -3.91
COc1ccc(/C=C/C(=O)NC(=S)NN2CCCCC2c2cccnc2)cc1 (centres unmarked) | -26.9
CCOC(=O)N1CCN(C(=O)C(=O)c2cn(CC(=O)N3CCCCCC3)c3ccccc23)CC1 | -12.9
Cc1ccc(C(=O)NCC(=O)OCC(=O)N2CCCc3ccccc32)cc1 | -22.6
O=C(Cn1[nH]c(=O)c2ccccc2c1=O)N1CCN(S(=O)(=O)c2ccc(Cl)cc2)CC1 | -8.89
COc1ccc(CN(Cc2ccc(OC)cc2)S(=O)(=O)c2ccc(-n3cnnn3)c(C)c2)cc1 | -2.08

Compound | hERG current change (%, negative = inhibition) at 10uM [%]
CCOC(=O)c1sc(NC(=O)CSc2ncccn2)nc1C | -6.81
COc1ccc(NC(=O)C2CCN(S(=O)(=O)c3c(C)noc3C)CC2)cc1 | 17.3
CCOC(=O)c1ccccc1NC1c2ccccc2C(=O)N1C1CCN(C(=O)OCC)CC1 (centres unmarked) | -56.4
CCOc1ccccc1/C=N/Nc1nc(C)cc(=O)[nH]1 | 0.476
CCn1c(C)c(C(C)=O)c(N2CCCCC2)nc1=S | 7.31
CC1CCCCN1CCCNC(=O)Cn1c(=O)c2cccn2c2ccccc21 (centres unmarked) | -1.36
CCOc1ccc(NC(=O)CCCN2C(=S)NC(C)(C)CC2C)cc1 (centres unmarked) | -1.74
O=C1c2ccccc2C2(c3ccccc3)N1CCN2C(=O)C(Cl)(Cl)Cl (centres unmarked) | 12.4
O=C(NC1CCCc2ccccc21)c1ccccc1 (centres unmarked) | 3.92
O=C(Cn1c(-c2ccccn2)nc2ccccc21)N/N=C/c1cccnc1 | -20
CN1CCN(S(=O)(=O)c2ccc(-c3ccc(Cl)cc3)cc2)CC1 | -1.17
N#CC1=C(N)Oc2c(c(=O)oc3ccccc23)C1c1ccccc1OC(=O)c1cccs1 (centres unmarked) | 17.2
C=CCn1c(NC)cc(=O)n(C)c1=O | 7.94
O=C(Cn1c(=O)[nH]c2ccccc2c1=O)N1CCN(c2cccc(Cl)c2)CC1 | 15.7
CCCn1c(O)c(N=Nc2ccc3ccccc3n2)c2ccccc21 | 15.5
O=C1C(=O)N(c2nccs2)C(c2ccccc2F)/C1=C(\O)c1ccc2c(c1)OCCO2 (centres unmarked) | 17.6
COc1[nH]c2ccc(F)cc2c1C(=O)OCC1CCN(CCNS(C)(=O)=O)CC1.NS(=O)(=O)O | -1.62
Cc1cccc(C)c1N=Cc1c(C(F)(F)F)[nH][nH]c1=O | 11.3
Clc1ccc(N2CC2c2ccncc2)cc1 (centres unmarked) | -7.29
COc1cc(/C=C(/C#N)C(=O)NC(C)c2ccccc2)cc(OC)c1O (centres unmarked) | -30.6
CC(=O)O.CN=C(N)NCCC[C@H](N)C(=O)O | 23
COc1cc(NC(=O)Nc2c(C)n(C)n(-c3ccccc3)c2=O)cc(OC)c1OC | 12.3

Compound | hERG current change (%, negative = inhibition) at 10uM [%]
CCO[C@H]1OC(C(N)=O)=C[C@@H](c2csc3ccccc23)[C@@H]1CCCO | -22.6
Cc1ccc(COC(=O)c2ccc3ccccc3n2)cc1 | 6.04
CCCCn1c(N)c(NCCC)c(=O)[nH]c1=O | 8.61
CCN(CC)c1ccc(C(=O)NNC(=O)CN2C(=O)NC(C)(c3ccccc3)C2=O)cc1 (centres unmarked) | -0.93
Brc1ccc(CSc2nnc(-c3ccco3)o2)cc1 | -1.05
Cc1[nH]c(=O)c(S(=O)(=O)c2ccccc2)c(C)c1Cl | 17
COc1ccc(/C(C)=N/OCC(=O)N=Nc2c(O)[nH]c3ccccc23)cc1 | -3.96
CC(=O)c1cccc(NC(=O)/C(=C\c2ccco2)NC(=O)c2ccco2)c1 | -64.3
COc1ccc([N+](=O)[O-])cc1NCC(=O)Nc1cc(S(=O)(=O)N2CCCCC2)ccc1C | 2.05
N#C/C(=C\c1ccc(F)cc1)c1nc(-c2ccco2)cs1 | 18.5
Cc1ccc(Nc2nc(-c3sc(NC(=O)c4cccc(Cl)c4)nc3C)cs2)cc1 | 6.36
CSc1nc(C)c(C(=O)C[n+]2ccc(C)cc2)cc1C#N.[Br-] | -44.4
CN(Cc1ccccc1)c1nc(CN2CCOCC2)nc2scc(-c3ccccc3)c12 | -24.9
O=C(O)c1cccc(Cn2c(Cl)c(/C=N/NC(=O)c3ccco3)sc2=O)c1 | 38.3
Cc1ccccc1-n1c(=O)cc(NCc2ccc3c(c2)OCO3)[nH]c1=O | -6.43
COc1ccccc1CNC(=O)/C=C/c1ccc(S(=O)(=O)NCc2ccco2)cc1 | -21
Cc1cnc(NC(=O)CN2CCCCC2)s1.[O-][Cl+3]([O-])([O-])O | 14.6
O=C(NCc1nc2ccccc2[nH]1)C1=C[C@H](c2ccc3c(c2)OCO3)C[C@H](OCCCCO)O1 | -37.2
N#Cc1ccsc1NC(=O)CN1CCN(S(=O)(=O)c2ccccc2C(F)(F)F)CC1 | -56.9
O=C(NCC(c1cccnc1)N1CCN(c2ccccc2F)CC1)c1cccc(Cl)c1 (centres unmarked) | -47.2
